Test results reported in the supplement of paper PMC4967469.
The IC50 comes from the fitted curve, where viability falls to half of the control; a limit (>, <) means that the fit lies beyond the doses tested. AUC sums up the same curve from the lowest dose to the 256-fold higher top dose; the more sensitive the line, the further below 1. For some assays here: The top dose, if marked as inferred, was calculated from the reported fits.

Columns and labels:
Experiment in all cases: Viability of human cancer cell lines after 72 h of drug (GDSC screen)
IPA-3 = compound: Oc1ccc2ccccc2c1SSc1c(O)ccc2ccccc12 [IPA-3]; settings: top dose 32 µM; top dose inferred
Experimental: (§1)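 Human cancer cell lines in 384-well plates, medium with 10% serum, drug for 72 h over a 256-fold dose range (nine 2-fold or five 4-fold steps up to the top dose). Adherent lines were fixed and stained with the nucleic acid dye Syto60, suspension lines read with resazurin; signal relative to control wells, capped at 0 and 100%. One two-parameter sigmoid per drug and line, fitted in a mixed model over all curves with the slope shared within a line.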

CI-1040 = compound: O=C(NOCC1CC1)c1ccc(F)c(F)c1Nc1ccc(I)cc1Cl [CI-1040]; settings: top dose 10 µM; top dose inferred
Experimental: as §1

Temozolomide = compound: Cn1nnc2c(C(N)=O)ncn2c1=O [Temozolomide]; settings: top dose 30 µM
Experimental: as §1

XL-880 = compound: COc1cc2c(Oc3ccc(NC(=O)C4(C(=O)Nc5ccc(F)cc5)CC4)cc3F)ccnc2cc1OCCCN1CCOCC1 [XL-880]; settings: top dose 5.12 µM; top dose inferred
Experimental: as §1

Tubastatin A = compound: CN1CCc2c(c3ccccc3n2Cc2ccc(C(=O)NO)cc2)C1 [Tubastatin A]; settings: top dose 20 µM
Experimental: as §1

Cell Line | AUC (IPA-3) | IC50 (IPA-3) [µM] | AUC (CI-1040) | IC50 (CI-1040) [µM] | AUC (Temozolomide) | IC50 (Temozolomide) [µM] | AUC (XL-880) | IC50 (XL-880) [µM] | AUC (Tubastatin A) | IC50 (Tubastatin A) [µM]
HT-1080 (fibrosarcoma, adherent) | 0.725 | 8.02 | 0.675 | 1.81 | 0.971 | > 30 | 0.764 | 1.67 | 0.983 | > 20
PANC-08-13 (pancreas, adherent) | 0.982 | > 32 | 0.878 | > 10 | 0.968 | > 30 | 0.556 | 0.475 | 0.983 | > 20
T47D (breast, adherent) | 0.839 | > 32 | 0.942 | > 10 | 0.97 | > 30 | 0.85 | > 5.12 | 0.878 | > 20
CAKI-1 (kidney, adherent) | 0.975 | > 32 | 0.829 | > 10 | 0.951 | > 30 | 0.545 | 0.45 | 0.957 | > 20
EGI-1 (biliary tract, adherent) | 0.982 | > 32 | 0.755 | 4.34 | 0.959 | > 30 | 0.676 | 1.16 | 0.982 | > 20
T-T (oesophagus, adherent) | 0.956 | > 32 | 0.847 | 7.28 | 0.986 | > 30 | 0.634 | 0.747 | 0.981 | > 20
CFPAC-1 (pancreas, adherent) | 0.979 | > 32 | 0.859 | > 10 | 0.977 | > 30 | 0.814 | 3.32 | 0.984 | > 20
P12-ICHIKAWA (T-cell lymphoblastic leukaemia, suspension) | 0.955 | > 32 | 0.983 | > 10 | 0.994 | > 30 | 0.591 | 0.535 | 0.858 | 10.8
HuCCT1 (biliary tract, adherent) | 0.831 | 23.6 | 0.805 | 5.77 | 0.981 | > 30 | 0.619 | 0.709 | 0.877 | > 20
CCF-STTG1 (glioma, adherent) | 0.977 | > 32 | 0.983 | > 10 | 0.987 | > 30 | 0.501 | 0.321 | 0.988 | > 20
SW1417 (large intestine, adherent) | 0.979 | > 32 | 0.796 | 5.6 | 0.985 | > 30 | 0.71 | 1.4 | 0.977 | > 20
OVCAR-5 (ovary, adherent) | 0.816 | 22.5 | 0.594 | 1.19 | 0.977 | > 30 | 0.665 | 1.02 | 0.93 | > 20
HCC1143 (breast, adherent) | 0.844 | > 32 | 0.79 | 6.59 | 0.977 | > 30 | 0.635 | 0.881 | 0.965 | > 20
Ca-Ski (cervix, adherent) | 0.983 | > 32 | 0.904 | > 10 | 0.935 | > 30 | 0.514 | 0.35 | 0.922 | > 20
G-292 Clone A141B1 (osteosarcoma, adherent) | 0.838 | > 32 | 0.909 | > 10 | 0.972 | > 30 | 0.656 | 1.13 | 0.899 | > 20
COLO-678 (large intestine, semi-adherent) | 0.985 | > 32 | 0.742 | 3.86 | 0.981 | > 30 | 0.809 | 3.69 | 0.983 | > 20
BICR22 (head and neck, adherent) | 0.983 | > 32 | 0.664 | 1.93 | 0.944 | > 30 | 0.73 | 1.62 | 0.966 | > 20
LNZTA3WT4 (glioma, adherent) | 0.988 | > 32 | 0.948 | > 10 | 0.948 | > 30 | 0.761 | 1.79 | 0.979 | > 20
EFM-19 (breast, adherent) | 0.783 | 21.7 | 0.935 | > 10 | 0.957 | > 30 | 0.726 | 2 | 0.85 | > 20
MEL-JUSO (melanoma, adherent) | 0.84 | 25.9 | 0.777 | 4.52 | 0.964 | > 30 | 0.541 | 0.419 | 0.951 | > 20
RPMI-2650 (head and neck, adherent) | 0.77 | 13.2 | 0.94 | > 10 | 0.98 | > 30 | 0.583 | 0.551 | 0.979 | > 20
Mewo (melanoma, adherent) | 0.961 | > 32 | 0.597 | 1.21 | 0.972 | > 30 | 0.851 | > 5.12 | 0.979 | > 20
NCI-H358 (lung adenocarcinoma, adherent) | 0.821 | 21.2 | 0.72 | 2.84 | 0.98 | > 30 | 0.654 | 0.899 | 0.857 | 19.3
Hs633T (fibrosarcoma, adherent) | 0.711 | 6.9 | 0.551 | 0.84 | 0.991 | > 30 | 0.558 | 0.446 | 0.972 | > 20
647-V (bladder, adherent) | 0.875 | 31.7 | 0.88 | > 10 | 0.909 | > 30 | 0.953 | > 5.12 | 0.986 | > 20
SNU-449 (liver, adherent) | 0.86 | 30.9 | 0.916 | > 10 | 0.975 | > 30 | 0.59 | 0.577 | 0.976 | > 20
